Source: the supplement of paper PMC11348887
Counter-ions that a name gives are not always drawn. This is one part of the list. No stated cut-off is given here; in the data, active = -2 or less and inactive = the rest. Many values rest on one well or one pass, so single values are uncertain.

test system: hPSC-derived cortical neurons (WA09); test: nuclei number (viability) z-score; higher = more surviving cells; details: 5 µM; treatment: days 7-14 after plating, readout day 21
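Further: nuclei counted from DAPI counterstain by automated high-content image analysis, four fields per well at ×20 in 384-well plates, with sequential b-score then z-score normalization.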

| SMILES | nuclei number (z-score) |
| --- | --- |
| CCc1cc2c(cc1CC)CC(NC[C@H](O)c1ccc(O)c3[nH]c(=O)ccc13)C2 [Indacaterol Maleate] | inactive: 0.336 |
| CCN(CC)CCNC(=O)c1ccc(N)cc1 [Procainamide HCl] | inactive: -0.909 |
| NC[C@H](O)c1ccc(O)c(O)c1 [Noradrenaline bitartrate monohydrate] | inactive: 0.43 |
| CC(C=CC1(O)C(C)=CC(=O)CC1(C)C)=CC(=O)O (configuration not stated) [Abscisic Acid (Dormin_] | inactive: 0.833 |
| O=[N+]([O-])c1ccc(Nc2nc(N3CCOCC3)nc(N3CCOCC3)n2)cc1 | inactive: 2.07 |
| CCCCOc1cc(C(=O)OCCN(CC)CC)ccc1N [Oxybuprocaine HCl] | inactive: -0.557 |
| O=C1O[C@H]([C@@H](O)CO)C([O-])=C1O.[Na+] [Sodium ascorbate] | inactive: 0.936 |
| N#C/C(=C1/SC[C@@H](c2ccc(Cl)cc2Cl)S1)n1ccnc1 [Luliconazole] | inactive: 0.0842 |
| CCOC(=O)C1=C(N)Oc2ccc(Br)cc2C1C(C#N)C(=O)OCC (configuration not stated) | inactive: 2 |
| Cc1cc(C(C)Nc2ccccc2)c2nc(N3CCOCC3)cc(=O)n2c1 (configuration not stated) | inactive: 0.748 |
| NC1(Cc2ccc(Cl)cc2)CCN(c2ncnc3[nH]ccc23)CC1 | inactive: 0.824 |
| N[C@H]1CC[C@H](N[C@@H]2C[C@H]2c2ccccc2)CC1 | inactive: -0.396 |
| CC(C)Oc1ccc2c(=O)c(-c3ccccc3)coc2c1 [Ipriflavone (Osteofix)] | inactive: 3.4 |
| CC(=O)Nc1nnc(S(N)(=O)=O)s1 [Acetazolamide] | inactive: 0.217 |
| CCCCOc1ccc(C(=O)Nc2ccc(F)cc2F)cc1 | inactive: 0.304 |
| Nc1nc(OCc2cc(Br)cs2)c2[nH]cnc2n1 [Lomeguatrib] | inactive: 0.325 |
| Clc1ccc2nsnc2c1NC1=NCCN1 [Tizanidine HCl] | inactive: -0.0784 |
| Cc1cc(Nc2cc(N3CCN(C)CC3)nc(Sc3ccc(NC(=O)C4CC4)cc3)n2)n[nH]1 [VX-680 (Tozasertib_ MK-0457)] | inactive: 0.359 |
| C=C[C@](C)(O)CC[C@@H]1[C@@]2(C)CCCC(C)(C)[C@@H]2CC[C@@]1(C)O [Sclareol] | inactive: 0.095 |
| CO/N=C(\C(=O)N[C@@H]1C(=O)N2C(C(=O)O)=C(COC(C)=O)CS[C@H]12)c1csc(N)n1 [Cefotaxime sodium] | inactive: -0.595 |
| Clc1ccc(C2(c3ccc(-c4cn[nH]c4)cc3)CCNCC2)cc1 | inactive: 0.823 |
| CNC(=O)[C@@H](NC(=O)[C@H](CC(C)C)[C@H](O)C(=O)NO)C(C)(C)C [Marimastat(BB-2516)] | inactive: 0.557 |
| C[C@]12CC[C@@H]3c4ccc(O)cc4C[C@@H](CCCCCCCCC[S+]([O-])CCCC(F)(F)C(F)(F)F)[C@H]3[C@@H]1CC[C@@H]2O (some centres not stated) [Fulvestrant] | inactive: 13.8 |
| COC(=O)[C@H](Cc1ccccc1)NC(=O)[C@@H](N)CC(=O)O [Aspartame] | inactive: -0.305 |

| SMILES | nuclei number (z-score) |
| --- | --- |
| CCS(=O)(=O)c1cccc(-c2cc(C(=O)NC3CCN(C)CC3)c(C)c3[nH]c4ncc(C)cc4c23)c1 | active: -6.62 |
| CC(C(O)c1ccc(O)cc1)N1CCC(Cc2ccccc2)CC1 (configuration not stated) [Ifenprodil Tartrate] | active: -3.84 |
| C[C@@H]1C/C=C/C=C/C=C/C=C/[C@H](O[C@@H]2O[C@H](C)[C@@H](O)[C@H](N)[C@@H]2O)C[C@@H]2O[C@](O)(C[C@@H](O)C[C@H]3O[C@@H]3/C=C/C(=O)O1)C[C@H](O)[C@H]2C(=O)O [Natamycin] | inactive: 2.9 |
| CC1=NN(c2ccc(C)c(C)c2)C(=O)/C1=N\Nc1cccc(-c2cccc(C(=O)O)c2)c1O [Eltrombopag Olamine] | inactive: 0.213 |
| CC1=NN(c2ccc(C)c(C)c2)C(=O)/C1=N\Nc1cccc(-c2cccc(C(=O)O)c2)c1O [Eltrombopag] | inactive: 0.407 |
| CCn1c(=O)c2c(nc(/C=C/c3ccc(OC)c(OC)c3)n2C)n(CC)c1=O [Istradefylline] | inactive: -0.557 |
| Cc1ccc(OCC(O)C(C)NC(C)C)c2c1CCC2 (configuration not stated) | inactive: -0.346 |
| Cc1cc(C)nc(NS(=O)(=O)c2ccc(N)cc2)n1 [Sulfamethazine] | inactive: 1.04 |
| CC1(C)O[C@@H]2C[C@H]3[C@@H]4C[C@H](F)C5=CC(=O)C=C[C@]5(C)[C@@]4(F)[C@@H](O)C[C@]3(C)[C@]2(C(=O)CO)O1 [Fluocinolone Acetonide] | inactive: 0.371 |
| COC(=O)N/N=C/c1c[n+]([O-])c2ccccc2[n+]1[O-] [Carbadox] | inactive: 1.55 |
| CC(C)(Oc1ccc(Cl)cc1)C(=O)OCCOC(=O)c1cccnc1 [Etofibrate] | inactive: -0.728 |
| CN(C(=O)CN(CCO)CC(=O)N(C)C(C)(C)Cc1ccccc1)C(C)(C)Cc1ccccc1 [Oxethazaine] | inactive: -0.974 |
| CN1CCN2c3ncccc3Cc3ccccc3C2C1 (configuration not stated) [Mirtazapine] | inactive: -0.19 |
| CC[C@H](NC(=O)[C@H](C)NC)C(=O)N1C[C@@H](O)C[C@H]1Cc1c(-c2[nH]c3cc(F)ccc3c2C[C@@H]2C[C@H](O)CN2C(=O)[C@H](CC)NC(=O)[C@H](C)NC)[nH]c2cc(F)ccc12 [Birinapant] | inactive: 0.461 |
| CC(C)N(CC[C@H](c1ccccc1)c1cc(CO)ccc1O)C(C)C | inactive: 0.968 |
| NC(N)=NCCCC(N)C(=O)NCC(=O)NC(CC(=O)O)C(=O)O (stereo not drawn) [RGD (Arg-Gly-Asp) Peptides] | inactive: 0.883 |
| CC(C)[C@H](N)C(=O)OCCOCn1cnc2c(=O)nc(N)[nH]c21 [Valaciclovir HCl] | inactive: 1.62 |
| CCCCCCNC(=O)n1cc(F)c(=O)[nH]c1=O [Carmofur] | inactive: -0.133 |
| CCC[C@@H]1C[C@@H](C(=O)N[C@@H]([C@H]2O[C@H](SC)[C@H](OP(=O)(O)O)[C@@H](O)[C@H]2O)[C@H](C)Cl)N(C)C1 [Clindamycin Phosphate] | inactive: -0.0938 |
| CC(O)c1cc(C(=O)N[C@@H](C)Cn2ccc(-c3ccc(C#N)c(Cl)c3)n2)n[nH]1 (some centres not stated) | inactive: 1.17 |
| COC(=O)C1=CO[C@@H](O)[C@@H]2C(CO)=CC[C@H]12 [Genipin] | inactive: 0.206 |
| Cc1nc(C(=O)NCC(=O)O)c(O)c2ccc(Oc3ccccc3)cc12 | inactive: 3.61 |
| COc1cccc2c1C(=O)c1c(O)c3c(c(O)c1C2=O)C[C@@](O)(C(=O)CO)C[C@@H]3O[C@H]1C[C@H](N)[C@H](O[C@@H]2CCCCO2)[C@H](C)O1 [Pirarubicin] | active: -7.65 |
| COC(=O)N[C@@H](C)CNc1nccc(-c2cn(C(C)C)nc2-c2cc(Cl)cc(NS(C)(=O)=O)c2F)n1 | inactive: 1 |

| SMILES | nuclei number (z-score) |
| --- | --- |
| CC[C@@H]1C(=O)N(C)c2cnc(Nc3ccc(C(=O)N[C@H]4CC[C@H](N5CCN(CC6CC6)CC5)CC4)cc3OC)nc2N1C(C)C [Volasertib (BI 6727)] | active: -4.53 |
| CCc1cccc(CC)c1NC(=O)N1Cc2[nH]nc(NC(=O)c3ccc(N4CCN(C)CC4)cc3)c2C1 | inactive: 1.1 |
| CC#C[C@]1(O)CC[C@H]2[C@@H]3CCC4=CC(=O)CCC4=C3[C@@H](c3ccc(N(C)C)cc3)C[C@@]21C [Mifepristone] | active: -6.88 |
| COc1ccc(Cl)cc1C(=O)NCCc1ccc(S(=O)(=O)NC(=O)NC2CCCCC2)cc1 [Glyburide] | inactive: 0.707 |
| Nc1nc(=O)n([C@@H]2CS[C@H](CO)O2)cc1F [Emtricitabine] | inactive: -0.355 |
| CCN(CC)CCOCCOC(=O)C1(c2ccccc2)CCCC1 [Pentoxyverine Citrate] | inactive: -0.367 |
| CC#CCn1c(N2CCC[C@@H](N)C2)nc2c1c(=O)n(Cc1nc(C)c3ccccc3n1)c(=O)n2C [Linagliptin] | inactive: 1.47 |
| CCN(CC)C(=O)C1(c2ccccc2)CC1CN (configuration not stated) [Milnacipran HCl] | inactive: 0.34 |
| Cc1cc(C(C)(C)C)cc(C)c1CC1=NCCN1 [Xylometazoline HCl] | inactive: -0.128 |
| COc1cc(NC(=O)c2ccccn2)ccc1Cl | inactive: 1.2 |
| c1ccc(Cn2c(-c3ccc(OC[C@H](C4CCNCC4)n4c(-c5ccccc5)nc5ccccc54)cc3)nc3ccccc32)cc1 [Deltarasin] | active: -5.6 |
| COc1cc2nc(N3CCN(C(=O)C4COc5ccccc5O4)CC3)nc(N)c2cc1OC (configuration not stated) [Doxazosin Mesylate] | inactive: 2.07 |
| N#C/C(=C(/N)Sc1ccc(N)cc1)c1ccccc1C(F)(F)F | inactive: 1.07 |
| NC[C@@](O)(c1ccc(Cl)cc1)c1ccc(-c2cn[nH]c2)cc1 | inactive: 3.4 |
| O=c1c(O)c(-c2ccc(O)cc2)oc2cc(O)cc(O)c12 [Kaempferol] | inactive: -0.811 |
| CNC(=O)c1ccc(N2C(=S)N(c3ccc(C#N)c(C(F)(F)F)c3)C(=O)C2(C)C)cc1F [Enzalutamide (MDV3100)] | inactive: 1.58 |
| CCCc1ccc(OCC(=O)N(Cc2nc(-c3cccnc3)no2)C(C)C)cc1 | inactive: 0.654 |
| COc1cc(OC)c(NC(=O)Nc2cc(C)on2)cc1Cl | inactive: 0.198 |
| CC(C)(C)c1cc(NC(=O)Nc2ccc(-c3cn4c(n3)sc3cc(OCCN5CCOCC5)ccc34)cc2)no1 [Quizartinib (AC220)] | active: -2.92 |
| CC1(C)Cc2c(-c3ccccc3)c(-c3ccc(Cl)cc3)c(CC(=O)O)n2C1 [Licofelone] | inactive: 0.121 |
| Nc1nc2c(cnn2CCc2ccccc2)c2nc(-c3ccco3)nn12 | inactive: 0.804 |
| Cc1c(N)c(=O)n(-c2ccccc2)n1C [4-Aminoantipyrine] | inactive: 0.795 |
| O=C(/C=C/c1cccc(S(=O)(=O)Nc2ccccc2)c1)NO [Belinostat (PXD101)] | active: -4.07 |
| NC[C@H]1O[C@H](O[C@H]2[C@H](O)[C@@H](O[C@H]3O[C@H](CO)[C@@H](O)[C@H](N)[C@H]3O)[C@H](N)C[C@@H]2N)[C@H](N)C[C@@H]1O [Tobramycin] | inactive: -0.675 |
